This note sets out measurements from publication PMC6919601, “Identification of Plasmodium dipeptidyl aminopeptidase allosteric inhibitors by high throughput screening” (PLoS ONE, 2019).

The campaign covered roughly 110,000 compounds. About 230 (0.21%) showed an effect of 50% or more. Some of the results follow.
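Further: 30 min substrate incubation versus DMSO and 10 µM JCP410 controls.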

For this experiment, the target named is DPAP1 (Plasmodium falciparum, UniProt Q8IIJ9). Put plainly: primary screen, percent inhibition; read by cleavage of a fluorogenic dipeptide substrate; higher = more effect of the substance. Details: species or system P. falciparum D10 trophozoite lysates; single well.
Sequence of DPAP1 (Q8IIJ9 whole entry, looked up): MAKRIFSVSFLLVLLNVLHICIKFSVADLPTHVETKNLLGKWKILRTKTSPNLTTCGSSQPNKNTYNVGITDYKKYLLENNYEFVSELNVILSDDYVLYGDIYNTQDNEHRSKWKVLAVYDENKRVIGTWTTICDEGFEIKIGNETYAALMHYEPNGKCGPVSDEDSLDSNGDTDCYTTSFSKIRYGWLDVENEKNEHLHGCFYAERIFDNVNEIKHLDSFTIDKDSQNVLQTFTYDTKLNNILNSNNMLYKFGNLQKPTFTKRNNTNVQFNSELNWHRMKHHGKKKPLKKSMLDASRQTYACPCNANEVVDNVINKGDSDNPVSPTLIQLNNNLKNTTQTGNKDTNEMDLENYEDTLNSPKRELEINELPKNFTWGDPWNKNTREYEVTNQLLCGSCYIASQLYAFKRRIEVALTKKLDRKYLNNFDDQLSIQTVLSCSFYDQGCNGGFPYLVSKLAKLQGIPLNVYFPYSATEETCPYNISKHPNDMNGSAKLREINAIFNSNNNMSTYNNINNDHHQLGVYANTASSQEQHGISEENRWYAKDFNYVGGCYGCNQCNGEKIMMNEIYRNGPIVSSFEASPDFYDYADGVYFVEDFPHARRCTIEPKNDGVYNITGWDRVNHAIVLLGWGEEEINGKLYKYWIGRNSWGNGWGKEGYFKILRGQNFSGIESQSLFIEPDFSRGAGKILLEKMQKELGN
As for `COc1cccc(C2C(C#N)=C(N)Oc3[nH]nc(C)c32)c1OC` (stereo not drawn), the “% Inhibition @ 10 uM” value is -4.33%.
For the compound `CCOc1ccc2nc(SCC(=O)Nc3ccccc3)c(C#N)cc2c1`, the “% Inhibition @ 10 uM” value was found to be 7.17%.
Take `CN1C(=O)/C(=C/c2ccco2)S/C1=N\c1ccc(N2CCOCC2)cc1`: the “% Inhibition @ 10 uM” value is on record as 8.7%.
Regarding `CCN1C(=O)CC(c2cccnc2)=Nc2ccccc21`, the “% Inhibition @ 10 uM” value was determined as 1.57%.
With `O=C(c1cc(-c2ccc(Cl)s2)nc2ccccc12)N1CCOCC1`, the “% Inhibition @ 10 uM” value is -2.53%.
Take `Fc1ccc(-c2csc(Nc3ccc4c(c3)OCO4)n2)cc1`: the “% Inhibition @ 10 uM” value amounted to 2%.
With `O=C(ON1C(=O)CCC1=O)c1ccc(Cl)cc1Cl` the figure was 8.74%; with `CC(C)Oc1ccc(NC(=O)c2ccco2)cc1`, -5.5%.
On to `O=C(CCc1ccccc1)Nc1ccc(-c2ccc(NC(=O)CCc3ccccc3)cc2)cc1`, for which the “% Inhibition @ 10 uM” value is on record as 0.968%.
As to `COc1cccc(N2CCN(C3CCN(C(C)=O)CC3)CC2)c1`, the “% Inhibition @ 10 uM” value is -2.02%.
For the compound `COc1ccc(Br)cc1CNC(=O)Cc1cccs1`, the “% Inhibition @ 10 uM” value was 0.0198%.
As to `COc1ccc(C(CC(=O)Nc2ccc(C)cn2)N2Cc3ccccc3C2=O)cc1` (stereo not drawn), the “% Inhibition @ 10 uM” value is listed as -10.3%.
To `COCc1cc(O)n2nc(-c3ccc(C(C)(C)C)cc3)cc2n1` belongs -7.23%; to `COc1ccc(/C=C(\C#N)c2nc(-c3cc4ccccc4c(=O)o3)cs2)cc1`, -0.239%; to `COC(=O)c1cnn(-c2ccccc2)c1N`, 1.63%.
Turning to `CCC1CCC2(CC1)SCC(=O)N2c1ccc(F)cc1` (stereo not drawn), the “% Inhibition @ 10 uM” value is on record as -2.67%.
As to `Cc1ccc2onc(CNC(=O)NCCCOC(C)C)c2c1`, the “% Inhibition @ 10 uM” value is given as -2.26%.
Take `Fc1ccccc1CNCc1cccn1-c1nnc(N2CCOCC2)s1`: the “% Inhibition @ 10 uM” value is on record as -10.7%.
Turning to `Oc1nc(-c2ccccc2)nc2c1C1(CCCCC1)Cc1ccccc1-2`, the “% Inhibition @ 10 uM” value is recorded as -2.55%.
Regarding `Cn1c(SCc2nc(-c3ccc(Cl)cc3)no2)nnc1-c1ccncc1`, the “% Inhibition @ 10 uM” value was -0.45%.
In the case of `c1ccc(OCCCCCCN2CCCC2)cc1`, the “% Inhibition @ 10 uM” value is -4.31%.
`CC(C)CCCNc1nc(N2CCOCC2)nc(N2CCOCC2)n1`: the “% Inhibition @ 10 uM” value is listed as -1.43%.
On to `CN1CCc2c1nc1ccccc1c2N`, for which the “% Inhibition @ 10 uM” value worked out at 1.24%.
As to `CC(C)(C)S(=O)(=O)c1cccc2ccccc12`, the “% Inhibition @ 10 uM” value is -2.18%.
For `CCOC(=O)N1CCC(NC(=O)C2CCCN(S(=O)(=O)c3cccc4nonc34)C2)CC1` (stereo not drawn), the “% Inhibition @ 10 uM” value is recorded as -5.88%.
For `Cc1ccc2[nH]c3c(cc(Nc4ccccc4)c4c(=O)c5ccccc5c(=O)c43)oc2c1`, the “% Inhibition @ 10 uM” value was -2.91%.
In the case of `COc1ccc(CC(=O)Nc2nc3nc(C)cc(C)n3n2)cc1`, the “% Inhibition @ 10 uM” value is on record as 5.2%.
As for `c1ccc(-c2cnc(-c3ccccc3)nc2)cc1`, the “% Inhibition @ 10 uM” value is on record as -3.27%.
Regarding `O=C(O)CNC(=O)/C(=C\c1ccccc1F)NC(=O)c1ccccc1`, the “% Inhibition @ 10 uM” value is given as -1.52%.
Regarding `N#C/C(=C\c1ccccc1F)c1nc(-c2ccc(Cl)cc2)cs1`, the “% Inhibition @ 10 uM” value was -3.67%.
With `CC(C)CCN(CN1C(=O)c2ccccc2C1=O)CN1C(=O)c2ccccc2C1=O` the figure was -3.04%; with `CCOC(=O)N1CCN(C(=O)CS(=O)(=O)Cc2nc(-c3cccc(OC)c3)oc2C)CC1`, -3.7%; with `COCCNc1oc(/C=C/c2cc(OC)c(OC)c(OC)c2)nc1C#N`, 4.13%.
Regarding `Cc1nc(N)c2c3c(sc2n1)CCCC3`, the “% Inhibition @ 10 uM” value worked out at 4.93%.
As to `Cc1ccc(C)c(NC(=O)c2ccccc2C(=O)O)c1`, the “% Inhibition @ 10 uM” value was 2.48%.
Take `Cc1cccc(-n2cnc3cc(C(=O)NCc4ccco4)ccc32)c1`: the “% Inhibition @ 10 uM” value is recorded as -1.99%.
To `CC(C)C12CN3CC(C(C)C)(CN(C1)C3C(O)C(O)C(O)CO)C2=O` (stereo not drawn) belongs 2.09%.
With `COc1ccc(CNc2nc3c(S(=O)(=O)c4ccc(C(C)C)cc4)nnn3c3ccccc23)cc1`, the “% Inhibition @ 10 uM” value is -4.85%.
As to `Cc1ccc(S(=O)(=O)N(C)CC(=O)c2ccccc2)cc1`, the “% Inhibition @ 10 uM” value worked out at 2.36%.
To `O=C(CN1CCOCC1)Nc1c2c(nc3c1CCC3)CCCC2` belongs -6.34%; to `COc1ccc(C(=O)c2sc(NCc3ccccc3)nc2N)cc1`, -5.17%.
With `N#Cc1sc2nc3c(cc2c1N)CCCC3` the figure was 1.41%; with `CCN(CC)CCNc1nc2c(c(=O)n(C)c(=O)n2C)n1C`, -3.14%.
For `Cc1ccc(C)c(OCC(=O)Nc2ccc3c(c2)OCO3)c1`, the “% Inhibition @ 10 uM” value is -7.63%.
In the case of `O=C(Nc1ccc(F)c(Cl)c1)C12CC3CC(C1)CC(n1cnc(Br)n1)(C3)C2`, the “% Inhibition @ 10 uM” value was -3.12%.
For `CCN(CC)CCCNC(=O)C1CCN(c2nc3c(C)cc(C)cc3s2)CC1`, the “% Inhibition @ 10 uM” value was -1.58%.
To `Cc1cc2c(cc1C)-c1nnc(-c3ccco3)n1C(C)(C)C2` belongs 3.82%; to `COc1ccc(C2(CNC(=O)COc3ccccc3)CCOCC2)cc1`, 5.09%; to `CC(NC(=O)Cn1cc(C(=O)C(F)(F)F)c2ccccc21)c1ccccc1` (stereo not drawn), -1.72%.
Consider `COc1ccccc1N1CCN(Cc2ccccc2Br)CC1`, for which the “% Inhibition @ 10 uM” value is on record as -3.65%.
To `CCc1cc2c(=O)c(Oc3ccccc3)coc2cc1OC` belongs -2.25%; to `O=C(/N=C1\SC2CS(=O)(=O)CC2N1c1ccccc1)c1ccccc1` (stereo not drawn), 2.17%; to `COc1cc(CCC(=O)NCc2ccco2)on1`, 2.41%.
Consider `O=C(c1cccc2ccccc12)N(Cc1ccc(Cl)cc1Cl)c1cccc(Cl)c1`, for which the “% Inhibition @ 10 uM” value was 3.42%.
As to `Cc1c(CN2CCN(c3cccc(Cl)c3)CC2)c(=O)n(-c2ccccc2)n1C`, the “% Inhibition @ 10 uM” value is recorded as 3.35%.
`COc1ccc(/C=C(/C#N)C(N)=O)cc1`: the “% Inhibition @ 10 uM” value is listed as -3.38%.
Regarding `NC(=O)c1c(NC(=O)COc2ccccc2)sc2c1CCCCCC2`, the “% Inhibition @ 10 uM” value is -0.661%.
Turning to `CCN(CC)CCn1c(-c2ccc(Br)cc2)cn2c3ccccc3nc12`, the “% Inhibition @ 10 uM” value stood at 5.04%.
`CC1(C)CC2=Nc3ccccc3NC(c3cc(F)ccc3F)C2=C(O)C1` (stereo not drawn): the “% Inhibition @ 10 uM” value is -3.16%.
As to `CC1CCN(S(=O)(=O)c2ccc([N+](=O)[O-])cc2)CC1`, the “% Inhibition @ 10 uM” value is reported as 0.526%.
For `CC(NCc1c(C(=O)O)n(Cc2ccccc2Cl)c2ccccc12)c1ccccc1` (stereo not drawn), the “% Inhibition @ 10 uM” value came to 3.54%.
Turning to `COc1cccc(CNC(=O)Cn2nc(C)n3ccnc3c2=O)c1`, the “% Inhibition @ 10 uM” value is reported as 18.9%.
Take `COC(=O)c1ccc(Cl)c(-c2ccc(C(=O)N[C@@H](Cc3c(F)cc(OC)cc3F)C(=O)NCC#N)cc2)c1`: the “% Inhibition @ 10 uM” value is listed as -6.56%.
Take `Cc1ccc(C2=NC(=O)/C(=C/c3sccc3C)S2)cc1`: the “% Inhibition @ 10 uM” value worked out at 0.884%.
With `CCOc1ccc(C(=O)Nc2cc(=O)n(C)c(=O)n2C)cc1` the figure was -7.56%; with `CC1(C)CC(NC2C3CC4CC(C3)CC2C4)CC(C)(C)N1` (stereo not drawn), -5.44%; with `Cc1cc(C)c(C=C2C(=O)c3ccccc3C2=O)c(C)c1C`, -2.32%.
In the case of `CCOc1cc(CNCc2cc(OC)cc(OC)c2)ccc1OC`, the “% Inhibition @ 10 uM” value worked out at 3.86%.
Turning to `CN1C(=O)/C(=C/c2ccc(-c3ccccc3C(=O)O)o2)S/C1=N/c1ccc(C(=O)O)cc1`, the “% Inhibition @ 10 uM” value was 22.7%.
With `O=C(N(CCN(Cc1ccccc1)C(=O)C(F)(F)F)Cc1ccccc1)C(F)(F)F` the figure was -2.8%.
Take `CCCCCc1ccc(-c2ccc(C(=O)Nc3ccc4ccccc4c3)cc2)cc1`: the “% Inhibition @ 10 uM” value is on record as -1.91%.
To `CCOC(=O)N1CCN(CCCc2ccccc2)CC1` belongs -1.21%; to `O=C(Nc1ccc([N+](=O)[O-])cc1)C1CC1c1ccccc1` (stereo not drawn), -0.415%; to `N#CC1=C(N)Oc2cc3c(cc2C1c1ccc(OCc2ccccc2Cl)cc1)OCO3` (stereo not drawn), -4.84%.
For the compound `Cn1c(=O)c2sccc2n2c(CCCC(=O)NCCCN3CCCC3=O)nnc12`, the “% Inhibition @ 10 uM” value is listed as -3.88%.
On to `CCOc1cc2c(cc1/C=C1/NC(=O)N(CC(=O)Nc3ccc(Cl)cc3)C1=O)OCO2`, for which the “% Inhibition @ 10 uM” value is reported as -6.16%.
Take `Cc1ccc(CNC(=O)c2oc3c(c2C)-c2n[nH]cc2CC3)cc1`: the “% Inhibition @ 10 uM” value was 1.72%.
To `Cc1cc(-c2ccc(S(=O)(=O)NCc3cccnc3)s2)on1` belongs -1.59%.
To `COc1ccc(S(=O)(=O)NCC2CCN(S(=O)(=O)c3ccc(OC)cc3)CC2)cc1` belongs -5.35%; to `CCOc1ccc(NC(=O)CN(c2ccccc2C)S(=O)(=O)c2ccccc2)cc1`, 0.635%.
On to `O=C(O)/C=C/c1cccc(NC(=O)c2ccccc2)c1`, for which the “% Inhibition @ 10 uM” value worked out at 1.24%.
Take `Cc1nc(-c2cc3ccccc3nc2O)no1`: the “% Inhibition @ 10 uM” value is -1.92%.
`C=CCOc1ccc(Br)cc1C1C2=C(O)CCCC2=NC2=C1C(=O)CCC2` (stereo not drawn): the “% Inhibition @ 10 uM” value was -4.49%.
With `Cc1ccc2oc(-c3ccccc3N)nc2c1` the figure was 2.6%; with `O=C(Cc1ccccc1)NC1CCC(NC(=O)Cc2ccccc2)CC1` (stereo not drawn), 6.84%.
For the compound `O=C(/C=C/c1ccc(F)cc1)n1cnc2ccccc21`, the “% Inhibition @ 10 uM” value is given as 14.5%.
Regarding `CCCn1c(/C=C/c2ccccc2)nc2ccccc21`, the “% Inhibition @ 10 uM” value is listed as -0.0626%.
To `CCCCNC(=O)c1cnn2c(C)c(Cc3ccc(C)cc3)c(C)nc12` belongs -2.48%.
For the compound `O=C1NC(=O)C(C(c2ccccc2)c2ccccc2)C(=O)N1`, the “% Inhibition @ 10 uM” value came out at 0.0345%.
As for `CC(=O)Nc1ccc(CN2CCN(c3ccc(C)cc3)CC2)cc1`, the “% Inhibition @ 10 uM” value is on record as -2.95%.
`Cc1nc(SCC(=O)O)c2oc3ccccc3c2n1`: the “% Inhibition @ 10 uM” value turned out to be 0.273%.
Take `CCOC(=O)c1c(NC(=O)/C=C/c2cccs2)sc(C(=O)OC)c1C`: the “% Inhibition @ 10 uM” value was determined as 3.06%.
With `COc1ccc(-n2nnc(S(=O)(=O)c3ccc(C)cc3)c2C)cc1Cl` the figure was -9.21%; with `COc1ccc2c(c1)C(C(C(C)=O)C(=O)c1ccc(F)cc1)c1ccccc1O2` (stereo not drawn), -5.38%.
As to `O=C(c1cc2ccc3cccnc3c2[nH]1)N1CCC(Cc2ccccc2)CC1`, the “% Inhibition @ 10 uM” value amounted to 4.11%.
Consider `C=CCOC(=O)n1c(SC)nc2ccccc21`, for which the “% Inhibition @ 10 uM” value was 2.79%.
Take `CCNC(=O)CN(c1cc(C)cc(C)c1)S(=O)(=O)c1ccc(OC)c(OC)c1`: the “% Inhibition @ 10 uM” value is listed as -2.14%.
In the case of `COc1cc(OC)cc(C(=O)N2CCN(Cc3cccc(OC)c3OC)CC2)c1`, the “% Inhibition @ 10 uM” value is reported as -4.01%.
To `COc1ccc(-c2c(C)oc3c(CN4CCN(C)CC4)c(O)ccc3c2=O)cc1OC` belongs 5.5%.
For the compound `Cc1c(CNC2CCCC2)c(C(=O)O)c(C)n1Cc1c(F)cccc1Cl`, the “% Inhibition @ 10 uM” value is recorded as -3.67%.
In the case of `CCN(Cc1ccccc1)C(=O)Cn1cccc1C(=O)c1ccccc1`, the “% Inhibition @ 10 uM” value is listed as -5.89%.
As for `O=C(Nc1ccc(F)cc1)C1CC(=O)N(c2ccc(Cl)cc2)C1` (stereo not drawn), the “% Inhibition @ 10 uM” value came out at 0.769%.
